Experimental data taken from PubChem BioAssay AID1347120 (National Center for Advancing Translational Sciences (NCATS), 2019).
In all, about 390,000 compounds went through this assay and about 930 (0.24%) were called active. Inconclusive means that the source gave no clear call. Such entries were picked first, then a sample of the others. Calls come from the whole dose curve; as a rule, active = well fitted activation curve with a large enough effect; inconclusive = small, poorly fitted or top-dose-only effect; inactive = no such curve, though single readings can be large or run the other way. A potency beside an inconclusive call is a rough fit, not a confirmed value.

Assay: qHTS for Suppressors of FUS Proteinopathy: Primary screen using FUS-linked yeast assay; note: nearly all actives have a fitted effect of over 55% in size;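 for growth rescue (activation): plate controls were DMSO vehicle for no effect and reference control for full effect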
Settings: S. cerevisiae FUS-expressing, OD600, 24 h; Potency: growth rescue; growth rescue (activation): at 76.6 µM (top of the series)
How it was run: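 Read-out: OD at 600 nm after 24hr at 30C, reporting rescue of FUS-induced yeast toxicity. Cells at OD 0.005 in galactose (2%) minimal medium; compounds tested in a dilution series; CP55940 titration from 92uM final as control.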
Potency is the fitted concentration of half-maximal effect; tags give direction and shape of the fitted curve.

With `CC(C)(O)c1[nH]c2ccc(C(F)(F)F)cc2c1C(C)(C)O` as the compound, how does the “growth rescue (activation)” value read?
Its value is inactive: -19.6%.

With `O=C(Nc1ccc2c(c1)OCO2)c1cc(C2CCCCN2S(=O)(=O)Cc2ccccc2)on1` (configuration not stated) as the compound, how does the Potency read?
Its Potency is inconclusive: 31.6 µM [activator, single point].

For `CC(=O)Nc1ccc(S(=O)(=O)N(C)CC(=O)OCC(=O)Nc2cc(C)on2)cc1`, which “growth rescue (activation)” value is on record?
The value was inactive: -11.7%.

For `O=C(Nc1cccc(S(=O)(=O)NCc2ccco2)c1)c1cc(-c2ccc(F)cc2)nc2ccccc12`, which “growth rescue (activation)” value is on record?
Its value is inactive: 20.1%.

With `CCN(CC(=O)Nc1ccc(C#N)cc1)CC(=O)Nc1ccc2c(c1)OCCO2` as the compound, how does the Potency read?
Its Potency is inconclusive: 7.08 µM [activator, partial curve, poor fit].

For `N#Cc1c(N)nc(SCc2ccccn2)c(C#N)c1-c1cccs1`, which growth rescue (activation) is on record?
Its growth rescue (activation) is inconclusive: 69.2% [activator].

Which Potency does the source give for `CCOc1ccccc1NC(C)C(=O)NC(=O)NC1CCCCC1` (configuration not stated) here?
The Potency was inconclusive: 8.91 µM [activator, partial curve, poor fit].

With `COc1ccc(C(=O)N2CC(=O)Nc3ccc(Br)cc3C2c2ccc(F)cc2)cc1OC` (configuration not stated) as the compound, how does the Potency read?
The Potency was inconclusive: 31.6 µM [activator, single point].

Which Potency does the source give for `Cc1cc(NS(=O)(=O)c2ccc(NC(=O)CSc3nnc(-c4ccc(C(C)(C)C)cc4)n3Cc3ccco3)cc2)nc(C)n1` here?
The Potency was inconclusive: 35.5 µM [activator, single point].

Which growth rescue (activation) does the source give for `Cc1c(C(=O)/C=C/N(C)C)nnn1-c1ccc(Cl)cc1Cl` here?
Its growth rescue (activation) is inconclusive: 3.48% [activator].

Which Potency does the source give for `[O-]C(=C(C(=S)Nc1cccc2ccccc12)[n+]1ccccc1)c1ccc2c(c1)OCCO2` here?
The Potency was inconclusive: 39.8 µM [activator, partial curve, poor fit].

Which Potency does the source give for `COc1ccc2[nH]c3c(c2c1)CCN1C(=O)C(CC(=O)NC/C=C(\C)CCC=C(C)C)C[C@H](C(=O)N(C(C)C)C(C)C)[C@@]31C` (some centres not stated) here?
Its Potency is inconclusive: 14.1 µM [activator, partial curve, poor fit].

With `Cn1c(=O)c2c(nc(CN3CCc4ccccc4C3)n2Cc2cccc(Cl)c2)n(C)c1=O` as the compound, how does the Potency read?
Its Potency is inconclusive: 31.6 µM [activator, partial curve].

Which “growth rescue (activation)” value does the source give for `COc1ccc(CN2C(=O)CN(S(C)(=O)=O)CC2(C)C(=O)Nc2ccc3c(c2)OCCO3)cc1OC` (configuration not stated) here?
Its value is inactive: 17.4%.

With `Cc1ccc(-n2cnc3cc(C(=O)NCCC4=CCCCC4)ccc32)c(C)c1` as the compound, how does the Potency read?
The Potency was inconclusive: 35.5 µM [activator, single point].

For `O=C(/C=C/c1ccco1)NCc1ccc(F)cc1`, which “growth rescue (activation)” value is on record?
The value was inactive: 1.21%.

For `COc1cc(Cl)c(C)cc1NC(=O)c1cc(S(=O)(=O)N2CCCC2)ccc1F`, which “growth rescue (activation)” value is on record?
Its value is inactive: 20.9%.

Which “growth rescue (activation)” value does the source give for `C[C@@H]1CN([C@@H](C)CO)C(=O)CCCn2nncc2CO[C@H]1CN(C)S(=O)(=O)c1cccc(C#N)c1` here?
The value was inactive: 5.03%.

Which Potency does the source give for `COc1ccc(C=CC(=O)c2ccc(OCc3ccccc3)c(OC)c2)cc1OC` here?
Its Potency is inconclusive: 28.2 µM [activator, single point].

With `CCc1cccc(CC)c1NC(=S)NCCc1c(C)[nH]c2ccccc12` as the compound, how does the Potency read?
Its Potency is inconclusive: 50.1 µM [activator, single point].

With `O=C(NN1C(=O)c2ccccc2NC1c1ccc([N+](=O)[O-])o1)c1ccccc1` (configuration not stated) as the compound, how does the “growth rescue (activation)” value read?
The value was inactive: 4.54%.

Which Potency does the source give for `Cc1noc(C)c1S(=O)(=O)N1CCCCC1c1cc(C(=O)Nc2cccc3c2CCCC3)no1` (configuration not stated) here?
Its Potency is inconclusive: 5.01 µM [activator, partial curve, poor fit].

Which Potency does the source give for `S=c1[nH]nc(Cc2cccc3ccccc23)n1-c1ccccc1` here?
Its Potency is inconclusive: 12.6 µM [activator, partial curve].

Which Potency does the source give for `Cc1c(C(=O)Nc2ccc(F)cc2F)oc2c1-c1nn(Cc3c(F)cccc3Cl)cc1CC2` here?
The Potency was inconclusive: 17.8 µM [activator, partial curve, poor fit].

For `CCc1ccc(N2CC(c3nnc(NC(=O)c4ccco4)s3)CC2=O)cc1` (configuration not stated), which “growth rescue (activation)” value is on record?
Its value is inactive: -3.24%.

For `CC(=O)c1ccc(S(=O)(=O)Nc2ccc(-c3cn4c(C)csc4n3)cc2)cc1`, which Potency is on record?
The Potency was inconclusive: 50.1 µM [activator, single point].

For `COc1ccc(C)cc1NC(c1nnc(-c2ccccc2)o1)c1ccc(F)cc1Cl` (configuration not stated), which Potency is on record?
Its Potency is inconclusive: 35.5 µM [activator, single point].

With `CC(=O)Nc1ccc2c(COC(=O)[C@@H](NS(=O)(=O)c3ccc(C)cc3)C(C)C)cc(=O)oc2c1` as the compound, how does the Potency read?
The Potency was inconclusive: 50.1 µM [activator, single point].

With `Cc1ccc(CNC(=O)c2c[nH]c3ccc(S(=O)(=O)N4CCOCC4)cc3c2=O)cc1` as the compound, how does the “growth rescue (activation)” value read?
The value was inactive: -18.8%.

With `Nc1[nH]c(C(=O)c2ccccc2)c(-c2ccccc2Br)c1C(=O)NCCc1c[nH]c2ccccc12` as the compound, how does the Potency read?
The Potency was inconclusive: 14.1 µM [activator, partial curve].

With `Cc1ccc(Nc2nnns2)cc1` as the compound, how does the “growth rescue (activation)” value read?
Its value is inactive: -7.13%.

With `Cc1ccc(Cn2cc(CN3[C@@H](CC(C)C)COc4cc(Br)ccc4S3(=O)=O)nn2)cc1` as the compound, how does the “growth rescue (activation)” value read?
The value was inactive: 6.17%.

With `CSc1ccc(C2=CC(=O)C[C@H](c3ccc4c(c3)OCO4)C2)cc1` as the compound, how does the “growth rescue (activation)” value read?
Its value is inactive: 0.967%.

With `CCOc1ccc(C2C(C(=O)Nc3ccccc3)=C(C)Nc3nc(-c4ccccc4)nn32)cc1OC` (configuration not stated) as the compound, how does the Potency read?
Its Potency is inconclusive: 25.1 µM [activator, single point].

With `COc1ccccc1C1/C(=C(/O)c2ccc(OC(C)C)cc2)C(=O)C(=O)N1c1cc(C)on1` (configuration not stated) as the compound, how does the Potency read?
Its Potency is active: 20 µM.

With `O=C(NNC(=O)c1ccccc1O)c1cc2ccccc2o1` as the compound, how does the “growth rescue (activation)” value read?
The value was inactive: 12.2%.

With `O=C(Cn1c(-c2cccs2)cc2ccccc21)N1CCN(c2ccc(Cl)cc2)CC1` as the compound, how does the “growth rescue (activation)” value read?
The value was inactive: -11.2%.

For `O=S(=O)(Oc1ccc(C(=S)N2CCOCC2)cc1)c1ccc(Cl)cc1`, which “growth rescue (activation)” value is on record?
Its value is inactive: 2.75%.

Which Potency does the source give for `CC(C)c1nn2c(=O)cc(COC(=O)C3CCCCC3)nc2s1` here?
Its Potency is inconclusive: 31.6 µM [activator, partial curve, poor fit].

For `CCCCn1nnnc1NCc1ccc(N2CCCC2)cc1`, which Potency is on record?
The Potency was active: 28.2 µM.

With `CC(C)(C)c1ccc(S(=O)(=O)N2CCCC2C(=O)N2CCc3ccccc3C2)cc1` (configuration not stated) as the compound, how does the Potency read?
The Potency was inconclusive: 39.8 µM [activator, partial curve, poor fit].

For `Cc1cc2c(=O)n(C)c(SCC(=O)Nc3cccc(O)c3)nc2s1`, which Potency is on record?
The Potency was inconclusive: 22.4 µM [activator, partial curve, poor fit].

For `COC(=O)CCCC1=CC2=CC(=O)C(C)(OC(=O)c3cccs3)C(=O)C2=CN1c1ccccc1` (configuration not stated), which Potency is on record?
Its Potency is inconclusive: 28.2 µM [activator, partial curve, poor fit].

With `Cc1c([C@H]2[C@@H](CC#N)C2(C)C)c2ccccc2n1C` as the compound, how does the “growth rescue (activation)” value read?
Its value is inactive: 3.27%.

Which Potency does the source give for `N#C/C(=C/c1ccc(N2CCCCC2)o1)C(=O)Nc1ccc2ccccc2c1` here?
Its Potency is inconclusive: 28.2 µM [activator, single point].

Which growth rescue (activation) does the source give for `CCOc1ccccc1C1CC(=O)Nc2cc3c(cc21)OCCO3` (configuration not stated) here?
Its growth rescue (activation) is inconclusive: 68.7% [activator].

With `Cc1cc(/C=C2/C(=N)N3C(=NC2=O)SN=C3S(C)(=O)=O)c(C)n1-c1ccccc1F` as the compound, how does the “growth rescue (activation)” value read?
Its value is inactive: 3.25%.

For `COc1ccc(Cl)cc1NC(=O)CCc1ccccc1`, which “growth rescue (activation)” value is on record?
Its value is inactive: -12%.

For `CC(=O)c1ccc(N2CCN(C(=O)c3cc(S(=O)(=O)N4CCCCCC4)cn3C)CC2)cc1`, which Potency is on record?
Its Potency is inconclusive: 22.4 µM [activator, single point].

With `CCc1cc(/C(Cc2ccccn2)=N\Nc2ccccc2)c(O)cc1O` as the compound, how does the Potency read?
Its Potency is inconclusive: 35.5 µM [activator, single point].

With `C=CCn1c(SCC(N)=O)nnc1-c1ccc(C)cc1` as the compound, how does the “growth rescue (activation)” value read?
The value was inactive: -2.31%.

With `C/C=C/C=C\C(=O)Nc1cccc(C2=NOC3(C2)C[C@@H](C(N)=O)N(C(=O)/C(C)=C/C)C3)c1` (some centres not stated) as the compound, how does the Potency read?
The Potency was inconclusive: 31.6 µM [activator, partial curve, poor fit].

For `COc1cc(Nc2ncc3c(n2)CCN(Cc2ccc(OC(C)C)c(OC)c2)C3)cc(OC)c1`, which Potency is on record?
Its Potency is inconclusive: 11.2 µM [activator, partial curve, poor fit].

With `COC(=O)[C@@]1(Cc2ccc(F)cc2)[C@H]2c3cc(C(=O)N(C)C)n(CCc4c[nH]c5ccc(O)cc45)c3C[C@H]2CN1C(=O)c1ccccc1` as the compound, how does the Potency read?
Its Potency is active: 15.8 µM.

Which “growth rescue (activation)” value does the source give for `O=[N+]([O-])c1cc(Br)c(O)c(/C=N/Nc2nnnn2-c2cccc3ccccc23)c1` here?
Its value is inactive: 40.1%.

Which Potency does the source give for `COc1ccccc1NC(=O)CSc1oc(-c2ccco2)nc1S(=O)(=O)c1ccc(C)cc1` here?
Its Potency is inconclusive: 31.6 µM [activator, single point].

For `CC(C)c1cc(C(C)C)c(S(=O)(=O)N2CCC(c3cn4ccccc4n3)CC2)c(C(C)C)c1`, which Potency is on record?
The Potency was inconclusive: 15.8 µM [activator, partial curve].

Which “growth rescue (activation)” value does the source give for `CN(C)c1cccc2c1c(NC(=O)Nc1ccc(Cl)cc1Cl)nn2C` here?
The value was inactive: 11.1%.

Which “growth rescue (activation)” value does the source give for `COc1ccc(/C=C/CN2CCC(Oc3ccc(C(=O)N4CCCCC4)cc3)CC2)cc1` here?
Its value is inactive: 27%.

For `CCOc1ccc(NC(=O)c2cc3cc(C)ccc3n2C)cc1`, which “growth rescue (activation)” value is on record?
Its value is inactive: -16.8%.

Which Potency does the source give for `O=C(O)CCCC(=O)Nc1ccc(N2CCCC2)cc1` here?
Its Potency is inconclusive: 50.1 µM [activator, single point].

With `CCC(=O)N1CCc2cc(S(=O)(=O)NCCC(=O)Nc3ccc(CC)cc3)ccc21` as the compound, how does the “growth rescue (activation)” value read?
Its value is inactive: -14%.

Which “growth rescue (activation)” value does the source give for `Cc1ccc(-c2nnc3n2N=C(c2ccccc2Br)CS3)cc1` here?
Its value is inactive: 5.86%.

With `Cc1cc(C)n(-c2ccc(Cl)c(C(=O)Nc3ccc(-c4nnc5n4CCCCC5)cc3)n2)n1` as the compound, how does the Potency read?
Its Potency is inconclusive: 31.6 µM [activator, single point].

With `COc1ccc(NC(=O)CSc2oc(-c3ccco3)nc2S(=O)(=O)c2ccc(C)cc2)c(OC)c1` as the compound, how does the Potency read?
Its Potency is inconclusive: 28.2 µM [activator, single point].

Which “growth rescue (activation)” value does the source give for `CC(C)(C)OC(=O)N1CCC(N2CCN(Cc3ccccc3)C(=O)C2=O)CC1` here?
The value was inactive: 3.35%.

With `Cc1c(CNC(C)CCc2ccccc2)c(C(=O)O)c(C)n1Cc1ccc(F)cc1` (configuration not stated) as the compound, how does the Potency read?
The Potency was inconclusive: 31.6 µM [activator, partial curve, poor fit].
